In all, about 320,000 compounds went through this assay and about 9,100 (2.8%) were called active. Inconclusive results, whose numbers are uncertain, are shown with a selection of clear calls. The call rests on the fitted dose curve; in most records, active means well fitted activation curve with a large enough effect; inconclusive means small, poorly fitted or top-dose-only effect; inactive means no such curve, though single readings can be large or run the other way. No potency is given beside an inconclusive call; the fits are too rough.
test: qHTS Assay for Rab9 Promoter Activators; settings: Huh7 Rab9 promoter-luciferase reporter, luminescence, 24 h; series mostly up to 9.22 µM; further: nearly all actives have a fitted effect of over 60% in size; on activation, negative = inhibition: % of control where 0% means no effect
Summary of the method: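 Steps: seed 1500 Huh7 Rab9-luc cells per well, rest 2 h at 37 °C; add compound in DMSO; incubate 24 h; add luciferase reagent, 10 min ambient; read luminescence.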
Potency means the concentration at half of the fitted maximal effect; tags describe the fitted curve by direction and shape.

| SMILES | Potency | activation, negative = inhibition |
| --- | --- | --- |
| CC(C)c1csc(CN2CCC(CO)(Cc3ccccc3)CC2)n1 | inconclusive [activator, single point] | – |
| O=C(Nc1ccc(Cl)cc1Cl)c1ccc(Br)o1 | inconclusive [activator, partial curve] | – |
| CCOc1ccc(NC(=O)c2ccc(Br)o2)c([N+](=O)[O-])c1 | inconclusive [activator, single point] | – |
| O=C(Cc1ccccc1F)Nc1ccc2c(c1)CCC2 | active: 3.16 µM | – |
| CN(CCOc1ccccc1)C(=O)c1ccc2c(c1)OCO2 | inconclusive [activator, single point] | – |
| O=C(N/N=C/c1ccc([N+](=O)[O-])cc1)c1cnccn1 | inconclusive [activator, single point] | – |
| O=C(Nc1ccc(Cl)cn1)Nc1ccccc1F | inactive | – |
| Cc1cccc(C(=O)Nc2ccc3c(c2)ncn3C)c1 | active: 1.26 µM | – |
| COc1ccc(-c2noc(CCc3ccccc3)n2)cc1 | inconclusive [activator, single point] | – |
| CCOc1ccc(-c2nnc(-c3cccs3)o2)cc1 | active: 0.631 µM | – |
| CCCN1C(=O)c2ccc(C(=O)Nc3cc(C)ccc3O)cc2C1=O | inconclusive [activator, partial curve] | – |
| c1ccc(Nc2nc3ccccc3n3nnnc23)cc1 | inconclusive [activator, single point] | – |
| O=C(c1cc(COc2c(F)cccc2F)on1)N1CCC(c2ccccc2F)C1 (centres undefined) | inconclusive [activator, partial curve] | – |
| CC(C)(C)c1csc(NC(=O)c2ccccc2O)n1 | inconclusive [activator, partial curve] | – |
| CCCn1c(SCC(=O)NCc2ccc3c(c2)OCO3)n[nH]c1=O | inactive | – |
| CC(C)(C)n1ncc2c(=O)n(CC(=O)NCc3ccccc3Cl)cnc21 | active: 0.398 µM | – |
| Nn1c(SCC(=O)Nc2ccccc2)nnc(Cc2ccccc2)c1=O | inactive | – |
| COc1ccc(-c2csc(N3CCC(c4ccccc4)C3)n2)cc1 (centres undefined) | inconclusive [activator, single point] | – |
| Cc1ccc(CNC(=O)Nc2ccccc2)cc1 | active: 2.51 µM | – |
| CCOC(=O)c1c(NC(=O)CN2C(=O)NC3(CCC(C)CC3)C2=O)sc(C)c1CC (centres undefined) | inactive | – |
| O=C(c1ccc(-c2ccccc2Cl)o1)N1CCN(S(=O)(=O)c2cccs2)CC1 | inconclusive [activator, single point] | – |
| CCN(CC)S(=O)(=O)c1ccc(NN=c2c(=O)c3ccccc3c2=O)cc1 | inactive | – |
| O=S1(=O)CCC(NC(=S)Nc2ccc3ccccc3c2)C1 (centres undefined) | inconclusive [activator, partial curve] | – |
| COc1ccc2cc(-c3ccn[nH]3)ccc2c1 | active: 1.78 µM | – |
| CC(=O)c1ccc(OCc2cc(C(=O)N3CCCCC3c3cccnc3)no2)cc1 (centres undefined) | inconclusive [activator, partial curve] | – |

| SMILES | Potency | activation, negative = inhibition |
| --- | --- | --- |
| Cc1[nH]c2ccc(C(=O)O)cc2c1C | inactive | – |
| O=S(=O)(Nc1cccc2c1CCCC2)c1ccc(Cl)cc1 | inactive | – |
| CN(c1ccccc1)c1nc(N)c([N+](=O)[O-])c(N2CCCC2)n1 | inconclusive [activator, single point] | – |
| CC(Sc1nc(C(C)(C)C)cc(-c2ccccc2)c1C#N)C(=O)Nc1ccccc1 (centres undefined) | inactive | – |
| C/C(=N\Nc1nc(C)cc(-c2ccccc2)n1)c1cccc(N)c1 | inactive | – |
| COc1ccc(NC(=O)CSc2nc(SC)ns2)c(OC)c1 | inconclusive [activator, single point] | – |
| CCOC(=O)c1cn(Cc2ccc(C)cc2)c2cc(F)ccc2c1=O | inactive | – |
| CCOC(=O)c1c(NC(=O)COC(=O)Cc2ccccc2[N+](=O)[O-])sc(C(=O)N(C)C)c1C | inactive | – |
| CC(C)(C)c1ccc(NC(=O)CC2(C(F)(F)F)OCCO2)cc1 | inconclusive [activator, partial curve] | – |
| O=C(Nc1cccc2ccccc12)c1onc2c1CCCC2 | inconclusive [activator, single point] | – |
| Cc1cc(NCCCn2ccnc2)n2ncc(-c3ccccc3)c2n1 | active: 0.112 µM | – |
| CC1CCN(Cc2nc(-c3ccccc3)no2)CC1 | active: 2.82 µM | – |
| CC(C)(C)c1ccc(CNc2ccc([N+](=O)[O-])cn2)cc1 | inconclusive [activator, single point] | – |
| NC(N)=NC(=S)Nc1ccc(Cl)cc1 | inconclusive [activator, partial curve] | – |
| COc1cccc2cc(C(=O)NC(C)c3ccccc3)c(=O)oc12 (centres undefined) | inactive | – |
| Cc1ccc(NC(=O)COc2cccc(/C=C3\SC(=S)N(CCC(=O)O)C3=O)c2)cc1Cl | inconclusive [activator, partial curve] | – |
| CCCCn1nc(C(=O)NCC(=O)Nc2c(C)cccc2C)c2ccccc2c1=O | inconclusive [activator, single point] | – |
| COc1cccc(COC(=O)c2cc(=O)[nH]c3ccc(S(=O)(=O)N4CCOCC4)cc23)c1OC | inactive | – |
| Cc1ccc(-c2cc(C(=O)N/N=C/c3c(C)nn(C)c3C)c3ccccc3n2)cc1C | inconclusive [activator, single point] | – |
| COc1cc(Cl)ccc1OCc1cc(C(=O)N(C)Cc2cccc3cnccc23)no1 | inconclusive [activator, partial curve] | – |
| C/C(=N\Nc1cccc(C(=O)O)c1)c1ccc(Cl)s1 | active: 2.82 µM | – |
| O=C(NNc1nc2ccccc2s1)Nc1ccccc1 | inconclusive [activator, single point] | – |
| C/C(=N/NC(=O)c1ccc(Br)s1)c1cccnc1 | inconclusive [activator, single point] | – |
| Cc1ccc2[nH]c(CNC(=O)c3ccccc3F)cc2c1 | inconclusive [activator, single point] | – |
| CCOC(=O)c1sc(=NC(=O)CCSc2ccccc2)n(C)c1C | inconclusive [activator, single point] | – |

| SMILES | Potency | activation, negative = inhibition |
| --- | --- | --- |
| O=C(NCC(=O)N1CCCC1)c1cccs1 | inconclusive [activator, single point] | – |
| Cc1ccc(NC(=O)c2oc3ccccc3c2C)c([N+](=O)[O-])c1 | inconclusive [activator, single point] | – |
| O=C(Nc1cccc([N+](=O)[O-])c1)c1ccc(N2CCCC2=O)cc1 | inconclusive [activator, single point] | – |
| O=[N+]([O-])c1ccc(O)c(/C=N/Nc2ccccc2Cl)c1 | inconclusive [activator, partial curve] | – |
| C/C(=N\NC(=O)c1ccc(O)cc1)c1cccc(NC(=O)c2ccccc2C)c1 | inconclusive [activator, partial curve] | – |
| C=CCn1cnc2c(nnn2-c2ccc(C)c(C)c2)c1=O | inconclusive [activator, single point] | – |
| CN(C)/C=C/C(=O)c1cnc(-c2ccccc2)s1 | active: 1.41 µM | – |
| Cc1ccc(S(=O)(=O)Oc2ccc(C)cc2/C=N/N=C2\NC(=O)C(C)S2)cc1 (centres undefined) | inconclusive [activator, single point] | – |
| CCCc1ccc2oc(C(=O)N(Cc3ccncc3)CC3CCCO3)c(C)c2c1 (centres undefined) | inactive | – |
| Cc1nn(-c2nc3ccccc3s2)c(N)c1-c1ccc(Cl)cc1 | inconclusive [activator, single point] | – |
| Cc1ccc(/C=C/c2nnc(-c3ccccc3)o2)cc1 | active: 1.12 µM | – |
| O=C1C(=C2SCCCS2)CC/C1=C\c1ccc(F)cc1 | inconclusive [activator, full curve, poor fit] | – |
| Cc1cc(N)c(-n2cc3c(=O)n(C)c(=O)n(C)c3c2)cc1C | inconclusive [activator, single point] | – |
| COc1ccc(NC(=O)/C=C/c2ccc(F)cc2)cn1 | inconclusive [activator, single point] | – |
| Cn1c(SCc2ccccc2Cl)nnc1-c1cnccn1 | inconclusive [activator, partial curve] | – |
| Cn1c(=O)c(C(=O)NC2CCCCCC2)c(O)c2ccccc21 | inconclusive [activator, single point] | – |
| Cc1cnc(NC(=O)COc2ccc3c(c2)CCC3)s1 | inconclusive [activator, partial curve] | – |
| Nc1ccccc1-c1nc2ccccc2s1 | active: 3.98 µM | – |
| CCNCC(=O)N1c2ccccc2CCc2ccc(NC(=O)OCC)cc21 | – | inactive: -3.46% [at 1.84 µM] |
| CN(C(=O)c1cccnc1)c1nnc(-c2ccccn2)s1 | inconclusive [activator, partial curve] | – |
| O=C(O)c1ccccc1SCc1csc(-c2ccccc2)n1 | inconclusive [activator, single point] | – |
| COc1ccc(/C=C/C(=O)Nc2ccc(C34CC5CC(CC(O)(C5)C3)C4)cc2)cc1OC | inconclusive [activator, partial curve] | – |
| O=C(C1=C(O)C(=O)N(CCCn2ccnc2)C1c1cccc(Br)c1)c1ccco1 (centres undefined) | inactive | – |
| Cc1cc(/C=C2\SC(=S)N(Cc3ccco3)C2=O)c(C)n1-c1cccnc1 | inconclusive [activator, single point] | – |
